Results as given in PMC4336329 (PLoS ONE, 2015).
The whole screen tested about 310,000 compounds, of which about 2,200 (0.71%) showed an effect of 50% or more. Effects have a minus sign here. The list shows a part of the results.

target: human ether-à-go-go-related gene (hERG) potassium channel (human, UniProt Q12809); test: primary screen, population patch clamp on CHO cells stably expressing hERG
Sequence (Q12809 whole entry, looked up): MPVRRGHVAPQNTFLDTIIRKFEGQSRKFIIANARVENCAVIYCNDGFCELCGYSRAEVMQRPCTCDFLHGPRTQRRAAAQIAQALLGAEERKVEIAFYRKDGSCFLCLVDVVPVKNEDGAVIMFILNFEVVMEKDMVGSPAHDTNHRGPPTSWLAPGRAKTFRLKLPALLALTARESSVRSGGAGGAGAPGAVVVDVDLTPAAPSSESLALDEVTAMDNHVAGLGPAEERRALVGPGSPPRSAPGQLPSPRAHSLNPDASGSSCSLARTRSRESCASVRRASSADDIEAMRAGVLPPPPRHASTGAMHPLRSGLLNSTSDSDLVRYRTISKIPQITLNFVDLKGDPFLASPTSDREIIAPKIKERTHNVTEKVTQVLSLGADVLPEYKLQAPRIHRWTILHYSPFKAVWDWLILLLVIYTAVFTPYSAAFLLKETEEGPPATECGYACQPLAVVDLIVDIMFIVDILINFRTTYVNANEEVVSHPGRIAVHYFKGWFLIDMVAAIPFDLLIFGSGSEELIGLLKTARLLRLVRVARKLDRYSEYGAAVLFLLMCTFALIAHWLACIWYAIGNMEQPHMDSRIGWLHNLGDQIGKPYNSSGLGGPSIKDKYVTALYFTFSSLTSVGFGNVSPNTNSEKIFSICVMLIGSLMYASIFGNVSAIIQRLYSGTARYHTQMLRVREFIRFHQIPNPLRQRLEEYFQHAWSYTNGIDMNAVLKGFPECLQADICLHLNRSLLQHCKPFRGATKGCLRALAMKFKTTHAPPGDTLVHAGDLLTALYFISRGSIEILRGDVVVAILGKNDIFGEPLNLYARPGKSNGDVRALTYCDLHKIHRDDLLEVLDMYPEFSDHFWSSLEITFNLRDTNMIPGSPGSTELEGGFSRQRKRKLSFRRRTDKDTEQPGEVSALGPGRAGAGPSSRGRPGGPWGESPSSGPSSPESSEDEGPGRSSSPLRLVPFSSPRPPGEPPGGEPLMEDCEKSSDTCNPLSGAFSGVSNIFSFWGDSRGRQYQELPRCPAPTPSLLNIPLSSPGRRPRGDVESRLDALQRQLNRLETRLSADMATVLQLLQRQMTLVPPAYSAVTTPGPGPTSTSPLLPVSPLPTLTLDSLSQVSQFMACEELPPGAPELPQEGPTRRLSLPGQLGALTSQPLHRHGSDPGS

SMILES	hERG current change (%, negative = inhibition) at 1uM [%]
O=C(CSc1nnc(-c2ccc(Cl)cc2Cl)n1C1CCCCC1)N1CCCC1	-2.08
CC1(C#N)c2ccccc2C(Br)=CN1C(=O)c1ccccc1 (centres unmarked)	2.31
C#CCNC(=O)C1=C[C@H](C2CCCCC2)C[C@H](OCCCCO)O1	9.57
Cc1ccc(C(=O)Nc2ncc(Cc3ccc(F)cc3)s2)o1	2.13
CCC(C)NS(=O)(=O)c1cc2c3c(c1)CCC(=O)N3CCC2 (centres unmarked)	21
CCC1=C2CC[C@H]3C(=O)N(c4ccccc4)C(=O)[C@H]3[C@H]2[C@@]2(C)C(=NCc3ccccc3)OC(=O)N2C1=O	11.8
CC(/C=N/n1c(-c2ccc(Cl)cc2)n[nH]c1=S)=C\c1ccco1	4.95
CC(C)c1ccc(NC(=O)Cn2c(=O)oc3cccnc32)cc1	1.99
N#CCC(=O)Nc1ccc(C(=O)OCC(=O)c2ccc3c(c2)NC(=O)CO3)cc1	8.51
CCOc1ccc(NC(=O)C/C(N)=N/O)cc1	9.45
Cc1ccc(NC(=O)CSc2nc(O)cc(=O)n2C)cc1	7.43
CC1C(c2ccccc2)=[N+]([O-])C2(CCCC2)N1O (centres unmarked)	9.24
Cc1cccc(C)c1NC(=S)N(CCCN1CCCCC1)Cc1ccco1	-6.59
COP(=O)(OC)C(NC(=O)C(C)(C)C)=C(Cl)Cl	4.85
CC1(C)Cc2c(C#N)c(NCCc3ccccc3)nc(-c3ccco3)c2CO1	9.72
Cc1cc(NC(=O)CSc2nccn2-c2cccc(Cl)c2)no1	10
C=CCN1C(=O)c2ccccc2NC1c1ccc(Br)s1 (centres unmarked)	11.4
c1ccc(-c2n[nH]c(-c3ccccn3)n2)nc1	18.1
O=C(NCc1ccncc1)c1ccc(NS(=O)(=O)c2cccc([N+](=O)[O-])c2)cc1	22.1
COc1ccc(-c2noc(C3CCCN(C(=O)c4ccc(F)cc4)C3)n2)cc1 (centres unmarked)	4.85
CC(C)CC(=O)NC(=S)Nc1ccc(F)cc1F	2.27
N#Cc1nc(COc2ccccc2F)oc1NCc1ccc(F)cc1	4.13

SMILES	hERG current change (%, negative = inhibition) at 1uM [%]
c1ccc(-c2csc(Nc3cccnc3)n2)nc1	-7.89
CCN(CC)S(=O)(=O)c1cccc(-c2nnc(SCC(=O)NCCC3=CCCCC3)n2N)c1	-1.1
N#Cc1ccc(COC(=O)C2CCC(=O)N2)cc1 (centres unmarked)	13.1
O=C(Nc1ccc2[nH]c(=O)[nH]c2c1)C(F)(F)F	3.72
O=C(O)c1ccc2c(=O)n(Cc3ccccc3)c(SCc3ccc([N+](=O)[O-])cc3)nc2c1	13.9
C/C(=N\N1CCN(c2ccc(Cl)cc2)CC1)c1cccs1	4.52
CC(=O)c1ccc(Nc2nc3ccc(C)cc3n3cnnc23)cc1	12.1
O=C(NCCC(=O)N1CCc2ccccc21)c1ccccc1Cl	8.68
FC(F)(F)c1cccc(NC2=NCCCS2)c1	12.5
COc1cc(/C=C2/C(=O)NN(c3ccc(C)c(Cl)c3)C2=O)cc([N+](=O)[O-])c1O	14.7
CCN(CC)c1ccc(/C=N/NC(=O)c2cccc(S(=O)(=O)Nc3ccccc3OC)c2)cc1	5.56
CC1C(=O)Nc2ccccc2N1C(=O)c1ccc(O)cc1 (centres unmarked)	12.6
COCCN(CCOC)C(=O)c1ccc(SCc2ccc(C)cc2)c([N+](=O)[O-])c1	-12.3
C=CCNC(=O)CN(Cc1ccccc1)S(=O)(=O)c1ccccc1	6.97
Cc1ccc(-n2c(-c3ccccc3)c[nH]c2=S)cc1	0.0755
Clc1ccc(NCc2nncn2-c2ccccc2)cc1	4.07
Cc1ccc(-c2nc3ccc(C(=O)O)cc3nc2-c2ccc(C)cc2)cc1	11.6
CCOC(=O)C1CCCN(C(=O)c2cc3cc(F)ccc3[nH]2)C1 (centres unmarked)	13.1
O=C(O)c1ccc2c(c1)N(Cc1ccc(F)cc1)C(=O)c1ccccc1S2	1.39
CCNS(=O)(=O)c1ccc2nc(NC(=O)/C=C/c3cc(OC)c(OC)c(OC)c3)sc2c1	2.49
CCOC(=O)C1=C(C)NC(C)=C(C(=O)OCC)C1C(=O)OCC(=O)N1CC(C)OC(C)C1 (centres unmarked)	12.2
O=C(Nc1ccc(Cl)cc1N1CCOCC1)C1CCCCC1	12
